These results are taken from ChEMBL document CHEMBL4888484, “Replenishing the malaria drug discovery pipeline: Screening and hit evaluation of the MMV Hit Generation Library 1 (HGL1) against asexual blood stage Plasmodium falciparum ,using a nano luciferase reporter read-out” (2022).

The whole screen tested about 150,000 compounds, of which about 540 (0.36%) showed an effect of 50% or more. The list shows a part of the results.

This assay deals with Plasmodium falciparum. The experiment in a line: Primary screen in NF54 nanoGlo assay, in single point, at 2uM, 72h; a lower Z score goes with more inhibition. The format is functional, Erythrocyte. Particulars: timepoint 72 hour.
For the compound `O=C(CCc1ccsc1)NC1CCCC1`, the “% Inhibition” value was -9% and the Z score is 0.82.
The like results for `CCOCCCC(=O)NCC1CCCC1NC(=O)CCCOCC` (stereo not drawn) were, in that order, -12% and 1.5.
The like results for `CC[C@@H](C(=O)OC(C)(C)C)N1CCN(S(=O)(=O)CC)CC1` were, in that order, -10% and 1.47.
The matching figures for `c1ccc(-c2noc(CN3CC[C@H](c4ccnc(-c5ccncc5)c4)C3)n2)cc1`: -19% and 2.43.
Turning to `CC(C(=O)N1C(C)COCC1C)c1cccs1` (stereo not drawn), the “% Inhibition” value was -17% and the Z score is recorded as 3.16.
The like results for `CCOCCOc1nc(-c2ccc(C(F)(F)F)cc2)n(-c2cccc(NC(=O)c3ccc(F)c(C)c3)c2)n1` were, in that order, -17% and 1.89.
The matching figures for `COc1nc(O)cc(C(=O)N2CCN(c3cccc(C(F)(F)F)c3)CC2)n1`: -9% and 1.68.
The matching figures for `NC(=O)CN1CCc2onc(-c3ccc4c(c3)OCO4)c2C1`: -11% and 1.23.
Regarding `Cn1nc2n(c1=O)CCN(C(=O)Cc1ccccc1F)CC2`, the “% Inhibition” value was -4% and the Z score is listed as 0.52.
The matching figures for `CC(C)(C(=O)O)N1CCN(c2cc(N3CCCC3)ncn2)CC1`: -8% and 1.28.
Turning to `CCOc1ncccc1CNC(=O)c1cc(C)n(-c2ccc3c(c2)OCCO3)c1C`, the “% Inhibition” value worked out at 6% and the Z score is on record as -1.09.
The like results for `CCNC(=O)C1CN(c2nc(C3CC3)nc3c2CCC3)C1` were, in that order, -3% and 0.37.
The matching figures for `C[C@@H](c1ncc(C(C)(C)C)o1)N1CCN(c2ccc(=O)[nH]n2)CC1`: -16% and 1.8.
The like results for `CN(CCNC(=O)C(F)(F)[C@H](O)c1ccccc1)C1CC1` were, in that order, -2% and 0.24.
For the compound `NC(=O)[C@@H]1CC[C@H](C(=O)N2CCCCC23CCOC3)C1` (stereo partly drawn), the “% Inhibition” value was -15% and the Z score is reported as 1.9.
In the case of `Cc1nc(CC(=O)NCc2sccc2C)cs1`, the “% Inhibition” value worked out at 3% and the Z score is -0.57.
The matching figures for `CCc1cc(O)nc(CN(C)Cc2cccnc2)n1`: 0% and 0.
The matching figures for `CC(C)(C)OC(=O)NC1CCC2(CC1)CNCCO2` (stereo not drawn): -7% and 0.87.
The matching figures for `CC(C)c1ccc(-c2nc(NCCN3CCCC3)nc3nn(-c4ccc(F)cc4)c(N)c23)cc1`: -22% and 2.13.
As for `Cc1nn(C)c(C)c1CCC(=O)N1CCC(C)CC1c1ccco1` (stereo not drawn), the “% Inhibition” value is -10% and the Z score came out at 1.36.
Turning to `CCc1nc(C)c(C(=O)NCc2cccnc2Oc2ccc(F)cc2F)o1`, the “% Inhibition” value is -2% and the Z score is 0.32.
As for `CC(C)c1cc(C(=O)N2CC3CCC2C3)on1` (stereo not drawn), the “% Inhibition” value worked out at 31% and the Z score is recorded as -3.45.
As to `O=C(Cc1ccsc1)N(Cc1ccccc1)[C@H]1CCS(=O)(=O)C1`, the “% Inhibition” value was -7% and the Z score was determined as 0.66.
The like results for `CCc1ccc(O)c(NC(=O)C(C)(C)C#N)c1` were, in that order, 13% and -1.79.
The matching figures for `CC1OCCC1C(=O)Nc1nc(-c2cnn(C)c2)ns1` (stereo not drawn): -3% and 0.53.
On to `CCn1nncc1C(=O)N[C@H]1COc2c1ccc(Cl)c2Cl`, for which the “% Inhibition” value is -16% and the Z score came to 2.16.
The matching figures for `O=C(CCOc1ccccc1)N[C@H]1CC(=O)N(Cc2cccc(F)c2)C1`: -7% and 0.92.
The like results for `Cc1cnccc1NCCNCc1ccnc(C(C)C)n1` were, in that order, -15% and 1.39.
The like results for `COc1ccc(C(=O)Cc2ccccn2)cc1` were, in that order, -1% and 0.11.
For the compound `O=C(c1cn(C[C@H]2CCCO2)nn1)N(CCO)Cc1cccs1`, the “% Inhibition” value was -1% and the Z score was 0.09.
As to `CCCCn1c(N)c(N(CC)C(=O)[C@H]2CC(=O)N(c3cccc(C(F)(F)F)c3)C2)c(=O)[nH]c1=O`, the “% Inhibition” value was -1% and the Z score turned out to be 0.09.
The like results for `Cc1ccc(C(=O)Nc2onc(C)c2-c2ccccc2)cc1NC(=O)[C@@H]1CCCO1` were, in that order, -13% and 1.93.
The matching figures for `CC(C)NC(=O)N1CCC[C@H]1C(=O)NC1CCCOc2cc(F)ccc21` (stereo partly drawn): 0% and 0.09.
The like results for `Cc1ccc2c(C(=O)NC3CC3)cc(NC(=O)C(C)C)cc2n1` were, in that order, -19% and 2.7.
As to `c1cc(-c2csc(N3CCOCC3)n2)cc(-n2cnnn2)c1`, the “% Inhibition” value is -10% and the Z score is reported as 1.95.
The matching figures for `Cn1nc2cc(Br)ccc2c1C(=O)N1C2C=CCC1CC2` (stereo not drawn): 2% and -0.28.
The matching figures for `CCc1cn[nH]c1[C@H]1CCCN(C(=O)c2c[nH]c(=O)[nH]2)C1`: -6% and 0.8.
Regarding `O=C(CCn1cnnn1)Nc1ccccc1C(=O)n1cnc2ccccc21`, the “% Inhibition” value was -9% and the Z score came to 1.73.
The like results for `COCc1nocc1C(=O)N(Cc1ccccc1Br)CC(C)C` were, in that order, -8% and 1.27.
For the compound `CS(=O)(=O)NCCC(=O)NC(c1cccs1)[C@H]1C[C@@H](O)C1` (stereo partly drawn), the “% Inhibition” value was -19% and the Z score is given as 1.92.
Turning to `Cn1cc(NC(=O)N2CCc3ccc(F)c(F)c3C2)c(C2CC2)n1`, the “% Inhibition” value is reported as 3% and the Z score is -0.41.
The like results for `Cc1noc([C@H]2CCCN(C(=O)C(=O)Nc3cnn(-c4ccncc4)c3)C2)n1` were, in that order, 5% and -0.59.
Regarding `CS(=O)(=O)c1ccc2c(c1)CCCN2C(=O)[C@H]1CC(=O)N(c2ccccc2)C1`, the “% Inhibition” value is reported as -7% and the Z score is reported as 1.29.
The like results for `CC[C@@H]1C[C@H]1NC(=O)NCc1nc2c(C)cccc2[nH]1` were, in that order, -10% and 1.6.
For the compound `CC(C)(CNC(=O)N1CCC[C@H]1C(C)(C)O)c1ccncc1`, the “% Inhibition” value was -11% and the Z score is 1.5.
The like results for `CCc1nn(C[C@H](O)c2ccc(C(C)C)cc2)c(=O)c(C#N)c1CC` were, in that order, 6% and -0.86.
The matching figures for `C[C@H]1CCCN(c2ccc(C(N)=O)cc2NC(=O)c2cnoc2C2CC2)C1`: -7% and 1.5.
In the case of `O=S(=O)(NCc1ccccc1N1CCC(CO)CC1)c1cccs1`, the “% Inhibition” value is given as -9% and the Z score amounted to 1.24.
The matching figures for `Cc1ccc(-n2nccc2NC(=O)[C@@H]2CCCc3ccccc32)nn1`: -14% and 1.76.
The like results for `COc1ccccc1CNC(=O)c1ccccc1N1C(=O)[C@@H]2Cc3c([nH]c4ccccc34)C(c3cccc(Cl)c3)N2C1=O` (stereo partly drawn) were, in that order, -16% and 1.39.
The like results for `CC[C@H](C)n1ncc(NC(=O)Nc2ccc(O)c(Cl)c2)c1C` were, in that order, -3% and 0.31.
`O=C(Cc1cccs1)N1CCC(Nc2cccnc2)CC1`: the “% Inhibition” value is recorded as -10% and the Z score turned out to be 1.77.
Take `Cc1ccc(NC(=O)c2c(C)nc3sc(C(=O)NCc4ccccc4)c(N)c3c2-c2cccs2)c(C)c1`: the “% Inhibition” value amounted to 61% and the Z score is -9.57.
For `COC(=O)c1cc(NCC(=O)Nc2ccc(C(=O)Nc3ccc(OC)cc3)cc2)cc(C(=O)OC)c1`, the “% Inhibition” value amounted to 2% and the Z score was -0.19.
On to `CC1CC1c1ccc(CN(C)C(=O)c2ccc(-c3ccccc3F)o2)o1` (stereo not drawn), for which the “% Inhibition” value is on record as -4% and the Z score is recorded as 0.46.
The like results for `CC(CC(O)c1ccco1)NC(=O)NCC1CCOC1C(C)(C)C` (stereo not drawn) were, in that order, -5% and 0.63.
As for `Cc1cc(C(=O)N2CCC[C@H](CCc3ccc(F)c(F)c3)C2)nc(C)n1`, the “% Inhibition” value was 3% and the Z score is -0.48.
The matching figures for `CC(=O)NCC(=O)NCCCCN(OCc1ccccc1)C(=O)OC(C)(C)C`: -9% and 1.34.
The like results for `Cc1cc(C(=O)N2CCOCC2)c2cc(C(C)C)ccc2n1` were, in that order, -7% and 1.36.
The like results for `Cc1nc2c(C(=O)NCc3ccccc3Cl)cnn2c(O)c1Cl` were, in that order, -13% and 1.72.
As for `N=C1C(c2nc3ccccc3s2)=C(O)CN1c1cc(F)c(F)c(F)c1`, the “% Inhibition” value is listed as -11% and the Z score came to 1.46.
The matching figures for `CCc1cc(NCc2cc3n(n2)CCCN(CC(C)C)C3)nc(C)n1`: 4% and -0.55.
For the compound `Fc1ccccc1CN1CCCC12CCN(c1ccc3ncccc3c1)CC2`, the “% Inhibition” value is -15% and the Z score is listed as 1.87.
The matching figures for `COCc1nc(C)cc(N(C)Cc2c[nH]nc2C)n1`: -6% and 0.82.
In the case of `Cc1nc(C)c(C(=O)N(C)[C@@H]2CCC[C@H]2O)s1`, the “% Inhibition” value was found to be 1% and the Z score was -0.16.
The like results for `COCc1nn(C)cc1C(=O)NCCc1cnc2ccccc2c1` were, in that order, 0% and 0.02.
The matching figures for `Cc1nnc(N2CC3(CCOCC3)[C@@H]2C2CC2)nc1C`: -5% and 0.8.
The like results for `Cc1cccc2cc3c(nc12)N(S(=O)(=O)c1ccc(C(C)C)cc1)CC3` were, in that order, -1% and 0.08.
As to `Cc1[nH]c(=O)[nH]c(=O)c1Cc1ncnn1Cc1ccc2c(c1)OCO2`, the “% Inhibition” value is 10% and the Z score is -1.43.
The matching figures for `COc1ccc(-c2onc(C)c2C(=O)NCCc2ccc(OC)nc2)cc1`: -5% and 0.51.
The like results for `C[C@@H](CCc1ccccc1F)NCc1ncnn1C` were, in that order, -10% and 1.16.
The like results for `CCc1cc2n(CCN3CCOCC3)c3ccccc3n2n1` were, in that order, -18% and 2.35.
On to `CCN1CCC(N(C)C(=O)C2CC3CCCCC3N2S(=O)(=O)c2ccc(OC)c(OC)c2)CC1` (stereo not drawn), for which the “% Inhibition” value is given as 4% and the Z score is recorded as -0.57.
The like results for `O=C(NC1CCC(O)CC1)N1CCC[C@@H]1Cc1cccc2ccccc12` (stereo partly drawn) were, in that order, -37% and 4.35.
In the case of `Cc1cc([C@H](C)NC2CCN(Cc3ccccc3)CC2)no1`, the “% Inhibition” value is reported as -10% and the Z score stood at 1.87.
The matching figures for `CCOc1cccc(NC(=O)N2Cc3ccccc3NC(=O)[C@@H]2C)c1`: -5% and 0.81.
In the case of `CN(CC(=O)N1CCCC[C@@]12CCCOC2)S(C)(=O)=O`, the “% Inhibition” value is given as -10% and the Z score is listed as 1.94.
For the compound `CCc1ccc(C2=CCN(C(=O)N[C@H]3CCC(=O)N(C)C3)CC2)cc1`, the “% Inhibition” value was -14% and the Z score was determined as 1.39.
The matching figures for `CC(C)(C)C1CCC(NC(=O)c2cncn2-c2ccc(-c3ccc(F)c(F)c3)cc2)CC1` (stereo not drawn): -6% and 0.84.
The like results for `O=C(N[C@H]1CCCC[C@@H]1F)c1ccncc1` were, in that order, 38% and -3.81.
The like results for `O=C1CC(C2CCCCN2Cc2ccsc2)CN1` (stereo not drawn) were, in that order, -9% and 1.18.
`Cn1cc(C(=O)C(=O)NCC2(c3ccccc3)CC2)cn1`: the “% Inhibition” value was -12% and the Z score is listed as 1.51.
With `CCCc1nc(C)cc(N[C@H]2CCN(CC(=O)N(C)C)C[C@@H]2O)n1`, the “% Inhibition” value is recorded as 15% and the Z score is -1.98.
With `COCCNC(=O)[C@H]1C[C@H](Oc2ccccc2)CN1CC1CC1`, the “% Inhibition” value is on record as -5% and the Z score was 0.94.
